According to PMC4336329 (PLoS ONE, 2015):
Screen size: about 310,000 compounds; about 14,000 (4.5%) showed an effect of 50% or more. Effects have a minus sign here. The list shows a part of the results.

target: human ether-à-go-go-related gene (hERG) potassium channel (human, UniProt Q12809); assay: primary screen, population patch clamp on CHO cells stably expressing hERG
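Note: peak tail current of the secondary pulse compared with the same well before compound.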

Chain of human ether-à-go-go-related gene (hERG) potassium channel (Q12809 whole entry, looked up): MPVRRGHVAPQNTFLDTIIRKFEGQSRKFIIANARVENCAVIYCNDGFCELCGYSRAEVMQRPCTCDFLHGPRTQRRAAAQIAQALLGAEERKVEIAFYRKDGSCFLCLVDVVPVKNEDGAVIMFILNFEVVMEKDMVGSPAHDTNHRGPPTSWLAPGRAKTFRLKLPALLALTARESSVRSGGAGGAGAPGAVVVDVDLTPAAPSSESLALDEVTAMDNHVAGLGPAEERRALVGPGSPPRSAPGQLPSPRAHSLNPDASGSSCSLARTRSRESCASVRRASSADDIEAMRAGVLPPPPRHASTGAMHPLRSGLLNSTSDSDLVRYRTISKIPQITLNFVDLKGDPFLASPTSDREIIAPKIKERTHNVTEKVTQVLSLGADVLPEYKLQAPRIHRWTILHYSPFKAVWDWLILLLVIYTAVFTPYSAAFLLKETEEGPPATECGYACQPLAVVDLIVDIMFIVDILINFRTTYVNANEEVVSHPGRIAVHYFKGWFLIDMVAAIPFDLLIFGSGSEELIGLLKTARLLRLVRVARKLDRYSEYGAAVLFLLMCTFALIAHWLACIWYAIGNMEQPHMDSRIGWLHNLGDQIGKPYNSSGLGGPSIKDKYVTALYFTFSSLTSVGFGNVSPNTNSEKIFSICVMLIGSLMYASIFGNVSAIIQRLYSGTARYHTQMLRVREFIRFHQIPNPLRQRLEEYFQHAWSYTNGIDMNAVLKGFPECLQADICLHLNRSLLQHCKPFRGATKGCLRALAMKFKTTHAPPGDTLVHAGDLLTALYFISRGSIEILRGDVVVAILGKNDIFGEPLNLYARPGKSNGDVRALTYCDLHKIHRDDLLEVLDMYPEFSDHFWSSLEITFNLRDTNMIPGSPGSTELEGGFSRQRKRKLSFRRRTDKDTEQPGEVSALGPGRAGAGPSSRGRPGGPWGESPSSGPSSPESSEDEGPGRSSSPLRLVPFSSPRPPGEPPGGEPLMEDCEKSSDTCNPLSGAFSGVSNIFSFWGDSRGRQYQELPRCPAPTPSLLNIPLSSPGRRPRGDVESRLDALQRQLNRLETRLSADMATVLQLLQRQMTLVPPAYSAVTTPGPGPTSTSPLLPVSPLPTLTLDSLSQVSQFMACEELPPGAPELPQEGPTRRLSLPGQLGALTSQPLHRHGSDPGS

For `COC(=O)/C=C1\NCCSC1=O`, which “hERG current change (%, negative = inhibition) at 10uM” value is on record?
Its value is -6.99%.

Which “hERG current change (%, negative = inhibition) at 10uM” value does the source give for `O=[N+]([O-])c1ccc(OS(=O)(=O)Cc2ccccc2)cc1` here?
The value was -32.2%.

`O=C(OCC(=O)N1CCCC1=O)c1cc2ccccc2o1` was tested. Which “hERG current change (%, negative = inhibition) at 10uM” value did it give?
The value was -4.34%.

Which “hERG current change (%, negative = inhibition) at 10uM” value does the source give for `O=C(NC(=S)NC1CCCCC1)c1ccccc1` here?
The value was 1.5%.

How did the “hERG current change (%, negative = inhibition) at 10uM” value turn out when `O=C(CN1CCOCC1)Nc1c2c(nc3ccccc13)N(Cc1ccccc1)CC2.O=C(O)C(=O)O` was run?
Its value is -68.9%.

For `C/C(=N\N1CCN(c2ccccc2)CC1)c1ccncc1`, which “hERG current change (%, negative = inhibition) at 10uM” value is on record?
Its value is 4.04%.

For `O=C(O)CC1(CC(=O)Nc2ccccc2Br)CCCC1`, which “hERG current change (%, negative = inhibition) at 10uM” value is on record?
The value was 0.928%.

`Cc1ccc(NC2CCCN(C(=O)c3cc4ncccn4n3)C2)cc1C` (centres unmarked) was tested. Which “hERG current change (%, negative = inhibition) at 10uM” value did it give?
Its value is 11.8%.

How did the “hERG current change (%, negative = inhibition) at 10uM” value turn out when `Cc1nc(S(=O)(=O)Cc2ccc(Cl)cc2)nc2c1CCC2` was run?
The value was 22.3%.

With `COC(=O)C1=Cc2cc(OC)cc([N+](=O)[O-])c2OC1N1CCOCC1` (centres unmarked) as the molecule, how does the “hERG current change (%, negative = inhibition) at 10uM” value read?
The value was -30.8%.

For `O=c1oc(-c2ccccc2F)nc2c1cnn2-c1ccccc1`, which “hERG current change (%, negative = inhibition) at 10uM” value is on record?
Its value is 0.817%.

With `Cc1ccc(NC(=O)/C(C#N)=C/c2cc(C)n(-c3ccc(N4CCOCC4)c([N+](=O)[O-])c3)c2C)c(C)c1` as the molecule, how does the “hERG current change (%, negative = inhibition) at 10uM” value read?
The value was -10.7%.

`O=C1CCC(C(=O)OCc2nnc(-c3ccccc3)o2)=NN1` was tested. Which “hERG current change (%, negative = inhibition) at 10uM” value did it give?
The value was 19.1%.

`O=C(Nc1ccc(N2CCOCC2)cc1)c1cccc2ccccc12` was tested. Which “hERG current change (%, negative = inhibition) at 10uM” value did it give?
The value was 11.7%.

For `Cc1ccc(C)n1-c1ccc(-c2nnc3n2CCCCC3)s1`, which “hERG current change (%, negative = inhibition) at 10uM” value is on record?
The value was -13.7%.

For `CC1=NN(c2ccccc2)C(=O)/C1=C\c1cn(-c2ccccc2)nc1C`, which “hERG current change (%, negative = inhibition) at 10uM” value is on record?
Its value is 10.3%.

How did the “hERG current change (%, negative = inhibition) at 10uM” value turn out when `COCCCn1c(=N)c(C(N)=S)cc2c(=O)n3cccc(C)c3nc21` was run?
The value was -84.3%.

How did the “hERG current change (%, negative = inhibition) at 10uM” value turn out when `CCOC(=O)c1nn(-c2cccc(C)c2)c2nnc(Cc3ccc(C)cc3)c(=O)n12` was run?
The value was -16.1%.

`Cc1ccc(NCC(=O)Nc2cccc(S(=O)(=O)N(C)C)c2)c(Cl)c1` was tested. Which “hERG current change (%, negative = inhibition) at 10uM” value did it give?
Its value is -6.84%.

How did the “hERG current change (%, negative = inhibition) at 10uM” value turn out when `Cc1ccc(N2C(=O)N(CC(=O)Nc3ccc(C)cc3Cl)C(=O)C2C)cc1` (centres unmarked) was run?
Its value is -16.5%.

With `O=C(Nc1cccnc1)c1cc(-c2ccc3c(c2)OCO3)on1` as the molecule, how does the “hERG current change (%, negative = inhibition) at 10uM” value read?
The value was 2.67%.

With `OCCOCCn1c(C2CCCN2c2nc(-c3ccc(F)cc3)cs2)nc2cc(C(F)(F)F)ccc21` (centres unmarked) as the molecule, how does the “hERG current change (%, negative = inhibition) at 10uM” value read?
The value was -75.1%.

With `CC(=O)c1ccc(OCCCC(=O)NC(C)c2ccc(S(N)(=O)=O)cc2)cc1` (centres unmarked) as the molecule, how does the “hERG current change (%, negative = inhibition) at 10uM” value read?
The value was 17.9%.

For `Cc1noc(C)c1CSCC(=O)N(C)CC(=O)Nc1ccc(Cl)c(Cl)c1`, which “hERG current change (%, negative = inhibition) at 10uM” value is on record?
Its value is -22.9%.

With `COc1ccc(-c2nn(-c3ccccc3)cc2N)cc1` as the molecule, how does the “hERG current change (%, negative = inhibition) at 10uM” value read?
Its value is -3.82%.

`C=CCNC(=S)N/N=C/c1ccc(C)s1` was tested. Which “hERG current change (%, negative = inhibition) at 10uM” value did it give?
The value was 9.8%.

For `COc1ccccc1OCCNC(=O)c1cccc(S(=O)(=O)N2CCN(Cc3ccccc3)CC2)c1`, which “hERG current change (%, negative = inhibition) at 10uM” value is on record?
Its value is -30.8%.

Which “hERG current change (%, negative = inhibition) at 10uM” value does the source give for `CCc1ccc2oc(=O)cc(CN3CCOCC3)c2c1` here?
The value was -5.95%.

Which “hERG current change (%, negative = inhibition) at 10uM” value does the source give for `Cc1ccc(-c2cn3c(n2)SCC3)cc1` here?
Its value is 8.36%.

With `c1cc2c3c(cccc3c1)C(N1CCCCCC1)=N2` as the molecule, how does the “hERG current change (%, negative = inhibition) at 10uM” value read?
Its value is -67%.

With `Cn1c(CC(=O)Nc2ccccc2)c(Sc2ccccc2)c2ccccc21` as the molecule, how does the “hERG current change (%, negative = inhibition) at 10uM” value read?
Its value is 24.4%.

With `COc1ccc(S(=O)(=O)N(C)c2ccc(C(=O)NC3CCCC3)cc2)cc1` as the molecule, how does the “hERG current change (%, negative = inhibition) at 10uM” value read?
Its value is -83.7%.

How did the “hERG current change (%, negative = inhibition) at 10uM” value turn out when `COC(=O)c1ccc(CN2CCC(Oc3cccc(C(=O)N4CCCC4)c3)CC2)cc1` was run?
The value was -50.8%.

With `O=C(NCCCNC(=O)c1cc(Cl)ccc1Cl)c1ccccn1` as the molecule, how does the “hERG current change (%, negative = inhibition) at 10uM” value read?
Its value is -8.84%.

`O=C(NC(Cc1c[nH]c2ccccc12)C(=O)Nc1ccc(F)c([N+](=O)[O-])c1)c1cccs1` (centres unmarked) was tested. Which “hERG current change (%, negative = inhibition) at 10uM” value did it give?
Its value is -22.1%.

With `COc1ccccc1N(CC(N)=O)S(=O)(=O)c1ccc(C)cc1` as the molecule, how does the “hERG current change (%, negative = inhibition) at 10uM” value read?
The value was 0.766%.

For `COc1ccc(Br)cc1/C=N/N1CCN(Cc2ccccc2)CC1`, which “hERG current change (%, negative = inhibition) at 10uM” value is on record?
The value was 9.27%.

Which “hERG current change (%, negative = inhibition) at 10uM” value does the source give for `O=C(Nc1cccc(-n2cnnn2)c1)c1cc2ccccc2o1` here?
The value was 5.66%.

For `O=C1c2ccccc2NC(c2ccccc2)N1Cc1ccccc1` (centres unmarked), which “hERG current change (%, negative = inhibition) at 10uM” value is on record?
Its value is -35.2%.

`CCN(CC)CCN1C(=O)C(O)=C(C(=O)c2cc3cccc(OC)c3o2)C1c1cccs1` (centres unmarked) was tested. Which “hERG current change (%, negative = inhibition) at 10uM” value did it give?
Its value is -10.9%.

`Cc1cc(Nc2nc3ccccc3nc2Cl)n(-c2ccccc2)n1` was tested. Which “hERG current change (%, negative = inhibition) at 10uM” value did it give?
Its value is -12.6%.

How did the “hERG current change (%, negative = inhibition) at 10uM” value turn out when `N#CC1=C(SCC(=O)c2cc3ccccc3oc2=O)NC(=O)C(C#N)C12CCCC2` (centres unmarked) was run?
The value was -54.5%.

With `S=C(N/N=C/c1cccs1)NC1CC2CCC1C2` (centres unmarked) as the molecule, how does the “hERG current change (%, negative = inhibition) at 10uM” value read?
Its value is 4.93%.

How did the “hERG current change (%, negative = inhibition) at 10uM” value turn out when `CC1(CCc2ccccc2)NC(=O)N(CC(=O)Nc2ccccc2C#N)C1=O` (centres unmarked) was run?
Its value is 2.41%.
